Out of some 48,000 compounds screened, about 1,200 (2.5%) were called active. Roughly 2% stayed inconclusive and do not appear here.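 How the source made its calls: active means activation of at least 60% and not above a set upper limit (about 1 call in 100 departs from these limits); inconclusive means activation of 40% to 60%, or above that upper limit; inactive means activation under 40%.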 Some of the results follow.
Target: Probable G-protein coupled receptor 32 (Homo sapiens) (UniProt O75388)
Assay: qHTS for Agonists of Human Resolvin D1 Receptor DRV1; further: 0% is about no effect
Details: CHO-K1 GPR32 beta-arrestin PathHunter luminescence, 90 min; at 76.9 µM; active compounds read high; zero percent set by DMSO-only wells
In short: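 Agonism was scored as beta-arrestin recruitment to ProLink-fused GPR32 in stably transfected CHO-K1 cells, giving a chemiluminescent beta-Gal signal; compounds were incubated 90 min at 37 °C.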

UniProt O75388, sequence (O75388 whole entry, looked up): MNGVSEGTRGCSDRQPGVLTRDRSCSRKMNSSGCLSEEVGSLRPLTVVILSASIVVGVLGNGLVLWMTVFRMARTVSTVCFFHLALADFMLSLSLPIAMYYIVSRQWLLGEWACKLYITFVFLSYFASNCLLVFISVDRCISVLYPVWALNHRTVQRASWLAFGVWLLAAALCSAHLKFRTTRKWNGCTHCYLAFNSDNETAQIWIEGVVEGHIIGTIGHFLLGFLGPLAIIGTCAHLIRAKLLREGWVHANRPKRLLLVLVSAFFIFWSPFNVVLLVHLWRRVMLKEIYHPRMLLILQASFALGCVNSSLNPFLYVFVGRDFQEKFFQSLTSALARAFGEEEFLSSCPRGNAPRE

activation, inactive:
COc1ccc(NC(=O)COCc2cc(-c3ccc4c(c3)OCO4)on2)cc1 16.8%
Cc1c(-c2nc(-c3ccccc3)no2)nnn1-c1ccc(F)c(Cl)c1 -8.48%
CCc1ccc(NC(=O)Cn2c(=O)n(-c3ccc(Cl)c(Cl)c3)c(=O)c3c(C)c(C)sc32)cc1 -2.47%
COc1ccc(Cl)c2sc(NC(=O)c3ccc(S(=O)(=O)N4CCOCC4)cc3)nc12 -24.8%
CSc1cccc(NC(=O)C2CCN(c3nc4ccccc4[nH]3)CC2)c1 -4.98%
Cc1ccc(Cn2c(SCc3ccc(C(=O)NC4CCCCC4)cc3)nc3ccncc32)cc1 3.16%
COCCNC(=O)c1cnc2sc(N3CCCCC3)nn2c1=O 7.48%
CC(=O)OCC(COC(C)=O)OC(C)=O -8.03%
Cc1ccc(-c2nc3c(c(SCc4ccc(Br)cc4)n2)Cc2c(CO)cnc(C)c2O3)cc1 16.4%
CSc1cccc(NC(=O)c2cnn(-c3ccc(F)cc3)c2-n2cccc2)c1 -3.8%
O=C(CSc1nc2c([nH]c3ccccc32)c(=O)n1-c1ccc(Cl)cc1)N1CCc2ccccc21 11.1%
Cc1ccc2c(=O)cc(C(=O)Nc3ccc(S(=O)(=O)N(C)c4ccccc4)cc3)oc2c1C -4.36%
O=C(CSc1nc2ccccc2nc1Cc1ccc(Cl)cc1)Nc1ccc2c(c1)OCO2 -12.9%
O=C(Cn1ncn2c(cc3sccc32)c1=O)NCCc1ccccc1 -4.46%
COc1ccc(CCNC(=O)CCc2c(C)c3cc4c(C)c(C)oc4cc3oc2=O)cc1OC 40.8%
Cc1ccc(-c2nc(CCNC(=O)c3ccc(C)c(C)c3)cs2)cc1 0.206%
CCOC(=O)c1ccc(NC2=CC(c3ccc(OCC)cc3)N(c3ccc(C(=O)OCC)cc3)C2=O)cc1 (stereo not drawn) -6.64%
CCOC(=O)c1cnc2cc(C(F)(F)F)ccc2c1Nc1cc(C)ccc1OC -8.98%
CC(=O)N1c2ccccc2C(=O)C1N1CCN(c2ccccc2F)CC1 (stereo not drawn) -27.9%
COc1ccc(-c2noc(CN(C)S(=O)(=O)c3c(C)cc(C)cc3C)n2)cc1OC -11.6%
CCC(C(=O)Nc1cccc(Cl)c1C)n1nc(C)c2sc3ccccc3c2c1=O (stereo not drawn) -15.1%
COc1ccc(C)cc1NC(=O)c1ccc(NS(=O)(=O)c2c(C)noc2C)cc1 24%
CCCCn1cc(S(=O)(=O)c2ccc(C)cc2)c(=O)c2cc(F)c(N3CCCCC3)cc21 -4.64%
Cc1cc(O)c(C(c2ccccc2)N2CCCCC2)c(=O)n1Cc1ccco1 (stereo not drawn) -8.05%
CCOc1ccccc1NC(=O)CSc1nnc2[nH]c(=O)cc(C)n12 9.69%
COc1ccccc1-c1nc2n(n1)C(c1ccccc1Cl)C(C(=O)Nc1cccnc1)=C(C)N2 (stereo not drawn) -15.2%
CC(C)(C)OC(=O)N1CCC(c2c(C(=O)NCc3ccccc3)cnn2-c2cccc(F)c2)CC1 -6.57%
COCCCNC(=O)C1CCN(Cc2cc3ccccc3n2Cc2ccccc2C)CC1 1.86%
Cc1oc(-c2ccc(Cl)cc2)nc1CN1CCCC(C(=O)NCCc2ccc(Cl)cc2)C1 (stereo not drawn) 42.8%
Cc1ccc(S(=O)(=O)c2c(O)cc(C)c(NS(=O)(=O)c3ccc(Br)cc3)c2C)cc1 41.9%
COC(=O)CCN(C(=O)C1CCN(S(=O)(=O)c2c(C)noc2/C=C/c2ccccc2F)CC1)c1ccccc1 -12.2%
CC(C)Oc1ccc(C(=O)Nc2nonc2-c2ccc(OC(C)C)cc2)cc1 4.87%
CCc1ccccc1N1C(=O)N(CC(=O)c2ccc(OC)cc2)c2ccccc2S1(=O)=O 8.49%
CCc1cccc(NC(=O)Cn2nc3c4cc(F)ccc4n(Cc4cccc(C)c4)cc-3c2=O)c1 -1.95%
CCOC(=O)c1cc(C)n(CC2CCC(C(=O)Nc3cc(OC)cc(OC)c3)CC2)c1C (stereo not drawn) -11.9%
COc1cc(NC(=O)CC(c2cccs2)N2Cc3ccccc3C2=O)cc(OC)c1OC (stereo not drawn) 6.55%
CCCNC(=O)c1cnc2c(-c3ccc(OCC)c(OCC)c3)c(C)nn2c1-c1ccccc1 4.26%
Clc1cccc(CSc2nnc(C3CCNCC3)o2)c1 -6.72%
CC(C)n1c(=N)c(C(=O)NC2CCCCC2)cc2c(=O)n3ccccc3nc21 13.1%
CCN(CCCNC(=O)Cn1ncc2c([nH]c3ccc(C)cc32)c1=O)Cc1ccccc1 8.34%
COc1ccc(NC(=O)C(=O)NCc2ccco2)cc1 -2.16%
COc1cccc(CN(C(=O)c2cccc(C)c2)C2CCS(=O)(=O)C2)c1 (stereo not drawn) -3.21%
CC(=O)c1ccc(NC(=O)Cn2nc(C(F)(F)F)c3c2CCCC3)cc1 31.6%
COc1ccc(OC)c(-c2noc(N3CCN(c4cccc(C)c4C)CC3)n2)c1 12.9%
COC(=O)CC1Oc2ccc(C)cc2-n2cc(-c3ccc(C)cc3)nc21 (stereo not drawn) 5.21%
Cc1ccc(CSc2oc(-c3cccs3)nc2S(=O)(=O)c2ccc(C)cc2)cc1 -9.01%
COC(=O)c1ccccc1NC(=O)C1=C(C)C(=O)OC12CCC(C)CC2 (stereo not drawn) -30.3%
CCc1ccc(NC(=O)Cn2c(=O)n(-c3cc(C)cc(C)c3)c(=O)c3oc4ccccc4c32)cc1 0.364%
COc1ccc(-c2nc(SCC(=O)Nc3ccc4c(c3)OCCO4)c(-c3ccccc3)[nH]2)cc1 -11.8%
COc1ccccc1Cn1cc(C(=O)c2ccc(C)cc2)c(=O)c2cc(F)cc(F)c21 14.6%
CCCN(CCC)C(=O)Cn1c(=O)n(Cc2ccc(C(=O)NCCc3ccc(Cl)cc3)cc2)c(=O)c2ccccc21 -16.3%

activation, active:
COc1cccc(NS(=O)(=O)c2ccc3c(c2)n(C)c(=O)n3C)c1 85.9%
CCSc1nn(CC(=O)Nc2cccc(CC)c2)c(N)c1S(=O)(=O)c1ccccc1 93.6%
